This is one part of the list.
Molecular target: T1, OsWOX13 (Oryza sativa, UniProt Q5QMM3 1-267)
T1 sequence: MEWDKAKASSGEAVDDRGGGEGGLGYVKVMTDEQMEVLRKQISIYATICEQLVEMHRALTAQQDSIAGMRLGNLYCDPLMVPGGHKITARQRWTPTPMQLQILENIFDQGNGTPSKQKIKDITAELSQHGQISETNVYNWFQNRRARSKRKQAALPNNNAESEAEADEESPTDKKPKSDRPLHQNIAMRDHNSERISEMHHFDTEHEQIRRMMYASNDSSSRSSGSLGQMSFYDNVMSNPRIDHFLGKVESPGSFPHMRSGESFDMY
Assay: protein-binding microarray (RPBM); PBS, 2% BSA, 51.3 ng/ul salmon testes DNA, 50 uM zinc acetate, 200 nM TF, 25 C, 1 h; high values mean tight binding
Settings: protein: recombinant; tags: N-terminal polyhistidine and DsRed monomer fusion (pET32a); label: CyDye5-dUTP incorporated in the synthesized complementary strand; 3' TTTTT single-stranded linker to array surface; dsDNA, one strand shown
Procedure, shortened: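 An Axon 4000B scanner gave the binding signal as per-feature fluorescence intensity in arbitrary units. This followed washing of a custom Agilent array that had been incubated for 1 h at 25 °C with 200 nM protein in PBS, 2% BSA, salmon testes DNA and 50 µM zinc acetate. The proteins were transcription factors fused at the N-terminus to polyhistidine and DsRed, expressed in E. coli BL21-CodonPlus and purified on Ni–NTA.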

Q: Which binding signal does the source give for “GTGATTTTGTGAAAATTAAAATTGTTGTACTTCTAAATATCGGAGTCACCTAGTGCAG” here?
A: The binding signal was 3370 fluorescence intensity (a.u.).

Q: For “TCATCGGCAAGTGCTACCCTTCAATCTCCCCACTGTGGACCGGAGTCACCTAGTGCAG”, which binding signal is on record?
A: Its binding signal is 7100 fluorescence intensity (a.u.).

Q: With “CTCATGACTGACAGTTATGAGAGGCAAAACGAATAACAGTCGGAGTCACCTAGTGCAG” as the sequence, how does the binding signal read?
A: Its binding signal is 17100 fluorescence intensity (a.u.).

Q: For “TTACAAATTATTAAAACGGTGAAATTATATTATAAAGGTCCGGAGTCACCTAGTGCAG”, which binding signal is on record?
A: The binding signal was 6370 fluorescence intensity (a.u.).

Q: How did the binding signal turn out when “TGTAACTTAGCACAATTATACTATGTTAAGCTGATTAACCCGGAGTCACCTAGTGCAG” was run?
A: Its binding signal is 3490 fluorescence intensity (a.u.).

Q: For “ATTTAATTTTCCTTTTACAGTAAATACCATCACTACCTTTCGGAGTCACCTAGTGCAG”, which binding signal is on record?
A: Its binding signal is 13900 fluorescence intensity (a.u.).

Q: Which binding signal does the source give for “TCTTCACATGAATGATGAAATTGCTAGTAGCATGTCTTCACGGAGTCACCTAGTGCAG” here?
A: The binding signal was 3410 fluorescence intensity (a.u.).

Q: How did the binding signal turn out when “TATTGATGGGCTGCTCATTCTAGTTGGGTCCGACCGGCGTCGGAGTCACCTAGTGCAG” was run?
A: Its binding signal is 9430 fluorescence intensity (a.u.).

Q: How did the binding signal turn out when “TGCTAATGATAGATTAATTAGACTTAATAAATTTATCTCGCGGAGTCACCTAGTGCAG” was run?
A: The binding signal was 28900 fluorescence intensity (a.u.).

Q: For “GCTGACATATATATGTAAAATAAGTCTATTTTACATCCCTCGGAGTCACCTAGTGCAG”, which binding signal is on record?
A: Its binding signal is 4370 fluorescence intensity (a.u.).

Q: For “GTGGATTGGATAATTGGACATGGAGACAAAACCCAAACACCGGAGTCACCTAGTGCAG”, which binding signal is on record?
A: Its binding signal is 24500 fluorescence intensity (a.u.).

Q: For “ACTAAAATGATGACAACAAATCTACGCAGCTGCCTGCTTTCGGAGTCACCTAGTGCAG”, which binding signal is on record?
A: Its binding signal is 4880 fluorescence intensity (a.u.).

Q: With “ATGTAGACTGGAAAAGATTTGAAGGGAGCAAAACATTCGGCGGAGTCACCTAGTGCAG” as the sequence, how does the binding signal read?
A: The binding signal was 10900 fluorescence intensity (a.u.).

Q: Which binding signal does the source give for “AGTGGATTACTAGATTATAGTAATCTGGCTTATAGATTGTCGGAGTCACCTAGTGCAG” here?
A: Its binding signal is 4140 fluorescence intensity (a.u.).

Q: “TCCGATGATTAATAATCAGCTGTAATCAAAGCTGTTAGCACGGAGTCACCTAGTGCAG” was tested. Which binding signal did it give?
A: The binding signal was 49200 fluorescence intensity (a.u.).

Q: “GTCCGTCGTCTAAGTCAAATAATTGATGCCATAAAGCGGACGGAGTCACCTAGTGCAG” was tested. Which binding signal did it give?
A: Its binding signal is 11800 fluorescence intensity (a.u.).

Q: With “TTACGTATGCATGACTAATTGACATATCCATTATATTGGTCGGAGTCACCTAGTGCAG” as the sequence, how does the binding signal read?
A: Its binding signal is 20300 fluorescence intensity (a.u.).

Q: How did the binding signal turn out when “TTAAGCTGCATAATTGACACAAAATAGATAAGTATTGTAGCGGAGTCACCTAGTGCAG” was run?
A: Its binding signal is 20600 fluorescence intensity (a.u.).

Q: “GAAATAGACACCGAAATTGCCCCAAAACTCTCCCACAAATCGGAGTCACCTAGTGCAG” was tested. Which binding signal did it give?
A: The binding signal was 6420 fluorescence intensity (a.u.).

Q: For “AAAATAAATTACAGATATAAAATTTATATTTGTGTTATTCCGGAGTCACCTAGTGCAG”, which binding signal is on record?
A: Its binding signal is 12300 fluorescence intensity (a.u.).

Q: “CCAGCACGAAATTAATTTTCACCAACGGAGGCTGACACGACGGAGTCACCTAGTGCAG” was tested. Which binding signal did it give?
A: Its binding signal is 6150 fluorescence intensity (a.u.).

Q: How did the binding signal turn out when “CGACGGGACACCTTGATTGATGAGGATTAATATCAGAATGCGGAGTCACCTAGTGCAG” was run?
A: Its binding signal is 31100 fluorescence intensity (a.u.).

Q: For “TTATTTGTGGCTTGAAGATTGACAGCTTTTGTTGATTGCTCGGAGTCACCTAGTGCAG”, which binding signal is on record?
A: Its binding signal is 9340 fluorescence intensity (a.u.).

Q: How did the binding signal turn out when “GGAAGCACTGATTTGAACATTTCATATACGCATTGTTTCGCGGAGTCACCTAGTGCAG” was run?
A: Its binding signal is 3830 fluorescence intensity (a.u.).

Q: With “TTTCTGTTTATATTTCAATTTATTGGTAGTAACAAACCTTCGGAGTCACCTAGTGCAG” as the sequence, how does the binding signal read?
A: Its binding signal is 9670 fluorescence intensity (a.u.).

Q: “GTAATGATGATTAATATTCCCTATCATCTAGTCCATGCTTCGGAGTCACCTAGTGCAG” was tested. Which binding signal did it give?
A: The binding signal was 31400 fluorescence intensity (a.u.).

Q: For “TGTTAAAATTTTGACATTACCAAATTTTAATAAGGTTTATCGGAGTCACCTAGTGCAG”, which binding signal is on record?
A: Its binding signal is 3950 fluorescence intensity (a.u.).

Q: Which binding signal does the source give for “TCATTTAATTGCTATGACAAATAACCACATCTATTTAAAACGGAGTCACCTAGTGCAG” here?
A: Its binding signal is 10600 fluorescence intensity (a.u.).

Q: For “CGCCTATAAATTGATGAAGACACTCGCATGCAAGCTCATTCGGAGTCACCTAGTGCAG”, which binding signal is on record?
A: The binding signal was 23300 fluorescence intensity (a.u.).

Q: For “ATTGACAATATTAATAAATTAATTATGTAAAATTTTAATTCGGAGTCACCTAGTGCAG”, which binding signal is on record?
A: The binding signal was 13600 fluorescence intensity (a.u.).

Q: With “TCTCCTACCCTAGCTTGCGTTGATTGGAAGGGACGGAGAGCGGAGTCACCTAGTGCAG” as the sequence, how does the binding signal read?
A: The binding signal was 6470 fluorescence intensity (a.u.).

Q: How did the binding signal turn out when “CATGGATTGATAGAGTGGAGAGAGAGTAGGGGTAGGTAATCGGAGTCACCTAGTGCAG” was run?
A: The binding signal was 36600 fluorescence intensity (a.u.).

Q: How did the binding signal turn out when “TTCAAAATAATTACCTTTTATCGATAAACATGACTTGTAACGGAGTCACCTAGTGCAG” was run?
A: Its binding signal is 5690 fluorescence intensity (a.u.).

Q: With “TGATTAATAATTTATTAATAGATCTGGTTGGTTCCTTTGGCGGAGTCACCTAGTGCAG” as the sequence, how does the binding signal read?
A: Its binding signal is 35900 fluorescence intensity (a.u.).

Q: How did the binding signal turn out when “ACTTACAAATTTTGTACTCAATTGAGATGTGCTTCGATTGCGGAGTCACCTAGTGCAG” was run?
A: Its binding signal is 5640 fluorescence intensity (a.u.).

Q: Which binding signal does the source give for “AATATTCATTTCAAACTAATTTGGAATTGCTCTCGCTCACCGGAGTCACCTAGTGCAG” here?
A: The binding signal was 4360 fluorescence intensity (a.u.).

Q: For “ACTAATTTATAATATTAAATATATACTACTTACAAAACTACGGAGTCACCTAGTGCAG”, which binding signal is on record?
A: The binding signal was 13800 fluorescence intensity (a.u.).

Q: “ATTTTAATTGTTTAGAAATCTAGGTGACATAACTCTACGACGGAGTCACCTAGTGCAG” was tested. Which binding signal did it give?
A: The binding signal was 13300 fluorescence intensity (a.u.).

Q: “AAAACCAATCAACAAAATACATACAACCTCATGTTCATGTCGGAGTCACCTAGTGCAG” was tested. Which binding signal did it give?
A: Its binding signal is 8060 fluorescence intensity (a.u.).

Q: “TTAAATTATATTTATATCAAATTATACTTTGATCAATACTCGGAGTCACCTAGTGCAG” was tested. Which binding signal did it give?
A: Its binding signal is 39900 fluorescence intensity (a.u.).

Q: How did the binding signal turn out when “TTTGATTTGATCTTTTAGTTTTGGATGTTGGTATGCTGTGCGGAGTCACCTAGTGCAG” was run?
A: The binding signal was 44400 fluorescence intensity (a.u.).

Q: For “TTGTTAACTGCTGATGTGTGACCTGACTGTTAAAAGCTGCCGGAGTCACCTAGTGCAG”, which binding signal is on record?
A: The binding signal was 19400 fluorescence intensity (a.u.).

Q: Which binding signal does the source give for “ACAACAAATCATCTTTTCGAGGATTTTGCGAAGAATCGATCGGAGTCACCTAGTGCAG” here?
A: Its binding signal is 3340 fluorescence intensity (a.u.).

Q: “TCTAATTGATAGCTAGCAGTAATGAATTATTTTAATATAGCGGAGTCACCTAGTGCAG” was tested. Which binding signal did it give?
A: Its binding signal is 50200 fluorescence intensity (a.u.).

Q: For “CCATCGCATCTGAAGTATAATTGACGCCATAGGTAGCAAACGGAGTCACCTAGTGCAG”, which binding signal is on record?
A: The binding signal was 3310 fluorescence intensity (a.u.).

Q: For “AATCGGTGAATGTATTGATTGGATTTGCGTGTTCATTGTTCGGAGTCACCTAGTGCAG”, which binding signal is on record?
A: The binding signal was 29200 fluorescence intensity (a.u.).

Q: For “ACTGATTGTCACATTTGGGATTGCTTTAACCTGCAACATTCGGAGTCACCTAGTGCAG”, which binding signal is on record?
A: The binding signal was 39800 fluorescence intensity (a.u.).

Q: Which binding signal does the source give for “CTTTATCCAAAACAATAATTGTTATCAAACTGGAGGAGTACGGAGTCACCTAGTGCAG” here?
A: Its binding signal is 4040 fluorescence intensity (a.u.).

Q: With “CTAATAATAAAACAAATTACATATTCCGCGTATAAACTGCCGGAGTCACCTAGTGCAG” as the sequence, how does the binding signal read?
A: Its binding signal is 8010 fluorescence intensity (a.u.).

Q: “AAGCAAGACCCCATCAATCAATCATCGGATACCACCTCTCCGGAGTCACCTAGTGCAG” was tested. Which binding signal did it give?
A: Its binding signal is 17800 fluorescence intensity (a.u.).

Q: How did the binding signal turn out when “CGCTGGTACCAACCCATCACTGATTGAGAGAAGGGAGAACCGGAGTCACCTAGTGCAG” was run?
A: Its binding signal is 12800 fluorescence intensity (a.u.).

Q: How did the binding signal turn out when “CATTAATTTCATAGCTTGATTGATAGATTCTTAGTATTTTCGGAGTCACCTAGTGCAG” was run?
A: Its binding signal is 34300 fluorescence intensity (a.u.).

Q: For “ATTTATTAATTATTAAAATTTGTTTATGTACCATATAAATCGGAGTCACCTAGTGCAG”, which binding signal is on record?
A: The binding signal was 11800 fluorescence intensity (a.u.).

Q: Which binding signal does the source give for “AAACTTAAACTGCAATTTACTTTTCTGAGGCGGCTGTGGGCGGAGTCACCTAGTGCAG” here?
A: Its binding signal is 13000 fluorescence intensity (a.u.).
